# Assay results from the supplement of paper PMC12230231.
# ± gives the standard deviation of the averaged measurements. Restriction of a single-cycle SIVsab GFP reporter by TRIM5α v1-loop variants in CRFK cells. Human variants: read share among cells still uninfected after two challenges over input, higher = gained restriction. Rhesus variants: share among infected cells over input, higher = lost restriction. Reporter dose not given per row. No active / inactive call per row; the paper calls a change when both replicates lie above its controls (mean + 2 SD of stop or wild-type variants, or the top frameshift score). Residues outside the varied loop are taken from Swiss-Prot. The paper reads the human single-substitution scores as noise; they and the rhesus combinations repeat poorly (rank correlation 0.3 to 0.4), indel scores repeat only for the top variants, rhesus substitutions well (0.9).
# Tested on: SIVsab (simian immunodeficiency virus of sabaeus monkeys), single-cycle GFP reporter, in CRFK cells
# Assay: enrichment among uninfected cells over input (fold); higher = stronger restriction
# Conditions: library: human / rhesus combinations
# Procedure: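 Pools of CRFK cells expressing variants of the TRIM5α v1 loop were challenged with the single-cycle reporter, sorted by GFP and sequenced; mean of two replicates.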
row,Sequence,enrichment
1,"MASGILVNVKEEVTCPICLELLTQPLSLDCGHSFCQACLTANHKKSMLDKGESSCPVCRISYQPENIRPNRHVANIVEKLREVKLSPEGQKVDHCARHGEKLLLFCQEDGKVICWLCERSQEHRGHHTFLTEEVAREYQVKLQAALEMLRQKQQEAEELEADIREEKASWKTQIQYDKTNVLADFEQLRDILDWEESNELQNLEKEEEDILKSLTNSETEMVQQTQSLRELISDLEHRLQGSVMELLQGVDGVIKRTENVTLKKPETFPKNQRRVFRAPDLKGMLEVFRELTDVRRYWVDVTVAPNNISCAVISEDKRQVSSPKPQIIYGAPGTRFTFQSLVNFNYCTGILGSQSITSGKHYWEVDVSKKTAWILGVCAGFQPDAMCNIEKNENYQPKYGYWVIGLEEGVKCSAFQDSSFHTPSVPFIVPLSVIICPDRVGVFLDYEACTVSFFNITNHGFLIYKFSHCSFSQPVFPYLNPRKCGVPMTLCSPSS [human TRIM5α, 330-340 = GAPGTRFTFQSLV]",0.106 ± 0.024
2,"MASGILVNVKEEVTCPICLELLTQPLSLDCGHSFCQACLTANHKKSMLDKGESSCPVCRISYQPENIRPNRHVANIVEKLREVKLSPEGQKVDHCARHGEKLLLFCQEDGKVICWLCERSQEHRGHHTFLTEEVAREYQVKLQAALEMLRQKQQEAEELEADIREEKASWKTQIQYDKTNVLADFEQLRDILDWEESNELQNLEKEEEDILKSLTNSETEMVQQTQSLRELISDLEHRLQGSVMELLQGVDGVIKRTENVTLKKPETFPKNQRRVFRAPDLKGMLEVFRELTDVRRYWVDVTVAPNNISCAVISEDKRQVSSPKPQIIYGAPGTRYQSLVNFNYCTGILGSQSITSGKHYWEVDVSKKTAWILGVCAGFQPDAMCNIEKNENYQPKYGYWVIGLEEGVKCSAFQDSSFHTPSVPFIVPLSVIICPDRVGVFLDYEACTVSFFNITNHGFLIYKFSHCSFSQPVFPYLNPRKCGVPMTLCSPSS [human TRIM5α, 330-340 = GAPGTRYQSLV]",0.597 ± 0.84

# Same assay, conditions: library: insertions and deletions
row,Sequence,enrichment
1,"MASGILVNVKEEVTCPICLELLTQPLSLDCGHSFCQACLTANHKKSMLDKGESSCPVCRISYQPENIRPNRHVANIVEKLREVKLSPEGQKVDHCARHGEKLLLFCQEDGKVICWLCERSQEHRGHHTFLTEEVAREYQVKLQAALEMLRQKQQEAEELEADIREEKASWKTQIQYDKTNVLADFEQLRDILDWEESNELQNLEKEEEDILKSLTNSETEMVQQTQSLRELISDLEHRLQGSVMELLQGVDGVIKRTENVTLKKPETFPKNQRRVFRAPDLKGMLEVFRELTDVRRYWVDVTVAPNNISCAVISEDKRQVSSPKPQIIYGARGTARGTRYQTFVNFNYCTGILGSQSITSGKHYWEVDVSKKTAWILGVCAGFQPDAMCNIEKNENYQPKYGYWVIGLEEGVKCSAFQDSSFHTPSVPFIVPLSVIICPDRVGVFLDYEACTVSFFNITNHGFLIYKFSHCSFSQPVFPYLNPRKCGVPMTLCSPSS [human TRIM5α, 4-codon duplication at 331]",0.468 ± 0.43
2,"MASGILVNVKEEVTCPICLELLTQPLSLDCGHSFCQACLTANHKKSMLDKGESSCPVCRISYQPENIRPNRHVANIVEKLREVKLSPEGQKVDHCARHGEKLLLFCQEDGKVICWLCERSQEHRGHHTFLTEEVAREYQVKLQAALEMLRQKQQEAEELEADIREEKASWKTQIQYDKTNVLADFEQLRDILDWEESNELQNLEKEEEDILKSLTNSETEMVQQTQSLRELISDLEHRLQGSVMELLQGVDGVIKRTENVTLKKPETFPKNQRRVFRAPDLKGMLEVFRELTDVRRYWVDVTVAPNNISCAVISEDKRQVSSPKPQIIYGARGTRYQTFVLGSQSITSGKHYWEVDVSKKTAWILGVCAGFQPDAMCNIEKNENYQPKYGYWVIGLEEGVKCSAFQDSSFHTPSVPFIVPLSVIICPDRVGVFLDYEACTVSFFNITNHGFLIYKFSHCSFSQPVFPYLNPRKCGVPMTLCSPSS [human TRIM5α, 8-codon deletion at 341]",0.916 ± 0.45
3,"MASGILVNVKEEVTCPICLELLTQPLSLDCGHSFCQACLTANHKKSMLDKGESSCPVCRISYQPENIRPNRHVANIVEKLREVKLSPEGQKVDHCARHGEKLLLFCQEDGKVICWLCERSQEHRGHHTFLTEEVAREYQVKLQAALEMLRQKQQEAEELEADIREEKASWKTQIQYDKTNVLADFEQLRDILDWEESNELQNLEKEEEDILKSLTNSETEMVQQTQSLRELISDLEHRLQGSVMELLQGVDGVIKRTENVTLKKPETFPKNQRRVFRAPDLKGMLEVFRELTDVRRYWVDVTVAPNNISCAVISEDKRQVSSPKPQIIYGARGTRYQTFVNFNYCTFNYCTGILGSQSITSGKHYWEVDVSKKTAWILGVCAGFQPDAMCNIEKNENYQPKYGYWVIGLEEGVKCSAFQDSSFHTPSVPFIVPLSVIICPDRVGVFLDYEACTVSFFNITNHGFLIYKFSHCSFSQPVFPYLNPRKCGVPMTLCSPSS [human TRIM5α, 5-codon duplication at 342]",0.287 ± 0.049
4,"MASGILVNVKEEVTCPICLELLTQPLSLDCGHSFCQACLTANHKKSMLDKGESSCPVCRISYQPENIRPNRHVANIVEKLREVKLSPEGQKVDHCARHGEKLLLFCQEDGKVICWLCERSQEHRGHHTFLTEEVAREYQVKLQAALEMLRQKQQEAEELEADIREEKASWKTQIQYDKTNVLADFEQLRDILDWEESNELQNLEKEEEDILKSLTNSETEMVQQTQSLRELISDLEHRLQGSVMELLQGVDGVIKRTENVTLKKPETFPKNQRRVFRAPDLKGMLEVFRELTDVRRYWVDVTVAPNNISCAVISEDKRQVSSPKPQIIYGARIYGARGTRYQTFVNFNYCTGILGSQSITSGKHYWEVDVSKKTAWILGVCAGFQPDAMCNIEKNENYQPKYGYWVIGLEEGVKCSAFQDSSFHTPSVPFIVPLSVIICPDRVGVFLDYEACTVSFFNITNHGFLIYKFSHCSFSQPVFPYLNPRKCGVPMTLCSPSS [human TRIM5α, 5-codon duplication at 328]",0.565 ± 0.047
5,"MASGILVNVKEEVTCPICLELLTQPLSLDCGHSFCQACLTANHKKSMLDKGESSCPVCRISYQPENIRPNRHVANIVEKLREVKLSPEGQKVDHCARHGEKLLLFCQEDGKVICWLCERSQEHRGHHTFLTEEVAREYQVKLQAALEMLRQKQQEAEELEADIREEKASWKTQIQYDKTNVLADFEQLRDILDWEESNELQNLEKEEEDILKSLTNSETEMVQQTQSLRELISDLEHRLQGSVMELLQGVDGVIKRTENVTLKKPETFPKNQRRVFRAPDLKGMLEVFRELTDVRRYWVDVTVAPNNISCAVISEDKRQVSSPKPQIIYGARGTRYQNYCTGILGSQSITSGKHYWEVDVSKKTAWILGVCAGFQPDAMCNIEKNENYQPKYGYWVIGLEEGVKCSAFQDSSFHTPSVPFIVPLSVIICPDRVGVFLDYEACTVSFFNITNHGFLIYKFSHCSFSQPVFPYLNPRKCGVPMTLCSPSS [human TRIM5α, 5-codon deletion at 338]",0.422 ± 0.16
6,"MASGILVNVKEEVTCPICLELLTQPLSLDCGHSFCQACLTANHKKSMLDKGESSCPVCRISYQPENIRPNRHVANIVEKLREVKLSPEGQKVDHCARHGEKLLLFCQEDGKVICWLCERSQEHRGHHTFLTEEVAREYQVKLQAALEMLRQKQQEAEELEADIREEKASWKTQIQYDKTNVLADFEQLRDILDWEESNELQNLEKEEEDILKSLTNSETEMVQQTQSLRELISDLEHRLQGSVMELLQGVDGVIKRTENVTLKKPETFPKNQRRVFRAPDLKGMLEVFRELTDVRRYWVDVTVAPNNISCAVISEDKRQVSSPKPQIIYGARGTRYQTFVNFNYCTGILYCTGILGSQSITSGKHYWEVDVSKKTAWILGVCAGFQPDAMCNIEKNENYQPKYGYWVIGLEEGVKCSAFQDSSFHTPSVPFIVPLSVIICPDRVGVFLDYEACTVSFFNITNHGFLIYKFSHCSFSQPVFPYLNPRKCGVPMTLCSPSS [human TRIM5α, 6-codon duplication at 344]",16 ± 21
